The source of these data is publication PMC7819943, “Rice protein-binding microarrays: a tool to detect cis-acting elements near promoter regions in rice”.

This is one part of the list.

In this experiment the target is T1, OsWOX13 (Oryza sativa, UniProt Q5QMM3 1-267).
T1 sequence: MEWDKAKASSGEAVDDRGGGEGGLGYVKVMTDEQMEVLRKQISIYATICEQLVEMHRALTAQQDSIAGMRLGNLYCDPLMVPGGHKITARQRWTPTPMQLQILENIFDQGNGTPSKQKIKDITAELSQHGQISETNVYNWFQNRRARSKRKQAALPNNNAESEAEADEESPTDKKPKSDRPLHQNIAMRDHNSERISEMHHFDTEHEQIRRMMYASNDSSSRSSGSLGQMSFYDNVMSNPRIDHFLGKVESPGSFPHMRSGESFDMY
The experiment can be described thus: protein-binding microarray (RPBM); PBS, 2% BSA, 51.3 ng/ul salmon testes DNA, 50 uM zinc acetate, 200 nM TF, 25 C, 1 h; high values mean tight binding. The following applies: protein: recombinant; tags: N-terminal polyhistidine and DsRed monomer fusion (pET32a); label: CyDye5-dUTP incorporated in the synthesized complementary strand; 3' TTTTT single-stranded linker to array surface; dsDNA, one strand shown. In a few lines: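 The binding signal is fluorescence intensity per array feature (arbitrary units). Readings came from an Axon 4000B scanner after a washed, 2% BSA-blocked, double-stranded custom Agilent array had been incubated for 1 h at 25 °C with 200 nM protein and 50 µM zinc acetate. The protein was a Ni–NTA-purified transcription factor fused N-terminally to polyhistidine and DsRed, expressed in E. coli BL21-CodonPlus.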
In the case of “CCGCCAATATTGATTGAGATATATTCAGAAATTCTATAAACGGAGTCACCTAGTGCAG”, the binding signal was 13900 fluorescence intensity (a.u.).

Turning to “TCAAACCAACAAAATTATCAATTATCTGTGATTTGGGATTCGGAGTCACCTAGTGCAG”, the binding signal is 24900 fluorescence intensity (a.u.).

“TTATCAGGAGACAATTGATTAAATTAATGGTAGGGGTACCCGGAGTCACCTAGTGCAG”: the binding signal is 17800 fluorescence intensity (a.u.). Under “ATTATAATCAATCTCCCGCGGTGTATGGGCTCGGCGCACGCGGAGTCACCTAGTGCAG” stands 10000 fluorescence intensity (a.u.). For “TAGCAAATATTAATTATAAGATTGGAAATTCCATCTAAATCGGAGTCACCTAGTGCAG”, the binding signal is 5150 fluorescence intensity (a.u.). To “TTTAATGTCTAAATTTAATAGTAGAGTCATACCTTCACCTCGGAGTCACCTAGTGCAG” belongs 8730 fluorescence intensity (a.u.); to “ATTGATTGATGCAGAATCCGGAAGTTGCTCACTTTGATTACGGAGTCACCTAGTGCAG”, 48700 fluorescence intensity (a.u.). To “CAAAATTAACACCAATCTCAGGAAGGTAATCCCAAATCCCCGGAGTCACCTAGTGCAG” belongs 25100 fluorescence intensity (a.u.); to “TTATTGTAACTAAATTTTGAACATATGATTTCTGCACGGACGGAGTCACCTAGTGCAG”, 8270 fluorescence intensity (a.u.). To “TGGCTAGGAACGTAATTGTGATTATTGGACAGGACTTAATCGGAGTCACCTAGTGCAG” belongs 6060 fluorescence intensity (a.u.); to “ATAACTAATCTAATAGCTCATTTATACAATAATTACATACCGGAGTCACCTAGTGCAG”, 6310 fluorescence intensity (a.u.). “ACTCAATCAGAGTTCAGACATACTCCGTAACTGAGAAGAGCGGAGTCACCTAGTGCAG”: the binding signal is 22000 fluorescence intensity (a.u.). Under “TCTCGATTGCCATCTGTTAACGAAGCTATCGTTGTACCCACGGAGTCACCTAGTGCAG” stands 7460 fluorescence intensity (a.u.); under “TGGACTCACAATCAATTACGGCCCGGCCCAGTAGATACCACGGAGTCACCTAGTGCAG”, 16000 fluorescence intensity (a.u.). To “TAACTTGCAATTACAATCAGTTACACAACACTTGTACAGACGGAGTCACCTAGTGCAG” belongs 14000 fluorescence intensity (a.u.). Under “GTGTTGACAGGATCTCCCCAGCCACAACAACACGAACCCCCGGAGTCACCTAGTGCAG” stands 11100 fluorescence intensity (a.u.); under “TATATAAATTTACGTATGAAATGCACTGTATGAAATGCACCGGAGTCACCTAGTGCAG”, 9180 fluorescence intensity (a.u.); under “TTTTCCTAATCAAACTTTTAACCCAAATATATAGTAACATCGGAGTCACCTAGTGCAG”, 3490 fluorescence intensity (a.u.). Regarding “GAAGACAAAATTTGGAAAATGGAACTGCGCTCGGAAACATCGGAGTCACCTAGTGCAG”, the binding signal is 3550 fluorescence intensity (a.u.). On to “TCCACAATTTGCTAATCATATTTCTGTTGATAATGATAATCGGAGTCACCTAGTGCAG”, for which the binding signal was 7820 fluorescence intensity (a.u.).

For “GTTGATTACTTCGTCCGTACTGCACCCCTATCATTTGGACCGGAGTCACCTAGTGCAG”, the binding signal was 39600 fluorescence intensity (a.u.). Turning to “CATATGATGATTATTTGGATCATTTTAGCTAGAATCTCTGCGGAGTCACCTAGTGCAG”, the binding signal is 27700 fluorescence intensity (a.u.). Under “ACCAATCACAACCATTCTTCTTCACTTACTTTCTCTTTTCCGGAGTCACCTAGTGCAG” stands 6630 fluorescence intensity (a.u.); under “CGAAACTTTGGACACATGCATAAAGCATTAAATATAGATACGGAGTCACCTAGTGCAG”, 3880 fluorescence intensity (a.u.); under “CCAACCAATCACAACCCTTCACCATTCACTTTTCCTACCTCGGAGTCACCTAGTGCAG”, 17400 fluorescence intensity (a.u.).

Regarding “GGTAGTAATTGATAGTGGGATTAACGCGAGAATTTAATTTCGGAGTCACCTAGTGCAG”, the binding signal was 31500 fluorescence intensity (a.u.). For the sequence “ATAATTAATATATTGGCTCGAAAGCTAGCTTATACTAGCCCGGAGTCACCTAGTGCAG”, the binding signal is 18300 fluorescence intensity (a.u.). Under “TTAGATAATTTTGTATGAGTGTTAGCCGTCCACTTGCGCGCGGAGTCACCTAGTGCAG” stands 10500 fluorescence intensity (a.u.). To “TGTAAATATATTTTAAAGAGATAAATGAGAAGAAAGAAGGCGGAGTCACCTAGTGCAG” belongs 3170 fluorescence intensity (a.u.); to “ACCAAAATTAAAAGTTTGAATAAATTACAACGATGTGATGCGGAGTCACCTAGTGCAG”, 5230 fluorescence intensity (a.u.); to “TGTTCATTCTTAGCATAATTGAAGTTTGTGGCTTTTATAACGGAGTCACCTAGTGCAG”, 4050 fluorescence intensity (a.u.). To “ATAAATTGATGCCCAATTTTCGAAGATGCTCATAGGGGTGCGGAGTCACCTAGTGCAG” belongs 52500 fluorescence intensity (a.u.). Turning to “GTGGTTGTATTAAATATATTGATAGTTAGGTATATGAATACGGAGTCACCTAGTGCAG”, the binding signal was 4110 fluorescence intensity (a.u.). To “TAAACAGATAAGAAGATTTTGCTTGGGTTATCTGTGAGGGCGGAGTCACCTAGTGCAG” belongs 3720 fluorescence intensity (a.u.); to “TTTGTTGAAATTATATCATTTCCGTTGTCATTTCCCACAACGGAGTCACCTAGTGCAG”, 3170 fluorescence intensity (a.u.); to “AACAAAATTATAACCATAAATTTAAATGTGAATATTCCAACGGAGTCACCTAGTGCAG”, 5380 fluorescence intensity (a.u.). Under “TTATTAATTGTTACATTTTCTTTGTTTATATATACGCACACGGAGTCACCTAGTGCAG” stands 19000 fluorescence intensity (a.u.); under “GCAAATATTTAATTAATCACACGTTAATGTACTGCTTCGTCGGAGTCACCTAGTGCAG”, 16900 fluorescence intensity (a.u.); under “TAAATTTGTCAATTGGGACCTCCAGAAAATTTGGTTGGTACGGAGTCACCTAGTGCAG”, 5590 fluorescence intensity (a.u.). Turning to “TCATCAATAAACTACTCCTTTGATGATCTCCCCACGTTGGCGGAGTCACCTAGTGCAG”, the binding signal is 3220 fluorescence intensity (a.u.). Under “AAGAGTACTTATTGATGATCACAATACTAACAGAGCCTTTCGGAGTCACCTAGTGCAG” stands 3910 fluorescence intensity (a.u.); under “AATAATTAAACACCTTAGGTGGTATTTGTTTATACTGTAGCGGAGTCACCTAGTGCAG”, 12000 fluorescence intensity (a.u.).
